Screen size: about 310,000 compounds; about 18,000 (5.8%) were called active. Inconclusive means that the source gave no clear call. Such entries were picked first, then a sample of the others. Calls follow the shape of the dose curve; as a rule, active = well fitted inhibition curve with a large enough effect; inconclusive = small, poorly fitted or top-dose-only effect, or another doubt; inactive = no such curve, though single readings can be large or run the other way. No potency is given beside an inconclusive call; the fits are too rough.
Test: Primary qHTS for delayed death inhibitors of the malarial parasite plastid, 48 hour incubation
Conditions: P. falciparum luciferase growth in erythrocytes; series mostly up to 28.7 µM
Procedure, shortened: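 Here the parasites carry a stable luciferase gene and grow inside erythrocytes in Albumax-based RPMI medium with compound for one erythrocytic cycle. Activity is scored as loss of luminescent signal.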
Potency is read from the fitted curve at half-maximal effect; tags tell the direction and shape of the fitted curve.

| Compound | Potency |
| --- | --- |
| COc1ccccc1CCNC(=O)c1cc(C2CC2)nc2c1cnn2C(C)C | inconclusive [inhibitor, partial curve, poor fit] |
| O=C(NN1c2ccccc2CCc2ccccc21)c1ccccc1Br | inconclusive [inhibitor, partial curve, poor fit] |
| Cc1cccc(C)c1NC(=O)COC(=O)c1ccc([N+](=O)[O-])o1 | inconclusive [inhibitor, single point] |
| Cc1ccc(NC(=O)CCc2nnc3ccc(NCc4ccco4)nn23)cc1 | inconclusive [inhibitor, single point] |
| CCN(CC)S(=O)(=O)c1cccc(C(=O)N[C@H](C(=O)NNC(=O)c2ccccc2)C(C)C)c1 | inconclusive [inhibitor, single point] |
| Cc1ccc(C2CC(c3cccs3)=NN2C(=O)CSc2nc(=O)n3cc(C)ccc3n2)cc1 (configuration not stated) | inconclusive [inhibitor, single point] |
| CC(=O)Nc1ccc(C(=O)Nc2nc(-c3cccnc3)cs2)cc1 | inactive |
| O=C(COc1ccccc1[N+](=O)[O-])Nc1cccc(Cl)c1N1CCOCC1 | inconclusive [inhibitor, partial curve, poor fit] |
| Cc1nnc(NC(=O)c2cc(-c3ccncc3)nc3c(C)cccc23)s1 | inconclusive [inhibitor, partial curve] |
| CC(=O)c1cc(CN2CCC(n3nccc3NC(=O)c3ccccc3)CC2)cs1 | inactive |
| COc1cccc(OC)c1C(=O)Nc1ccc([N+](=O)[O-])cn1 | inactive |
| Cc1c(C(=O)N2CCN(C(=O)c3ccco3)CC2)sc2nc(-c3ccc(F)cc3)cn12 | inconclusive [inhibitor, single point] |
| CCOc1ccc(N2C(=O)CC(Sc3nccc(C)n3)C2=O)cc1 (configuration not stated) | inactive |
| COc1ccc(C(=O)C[n+]2cccc3cc(OC)ccc32)cc1 | active: 9.28 µM |
| COc1ccc(CCNC(=O)c2cccc(S(=O)(=O)N3CCCCC3)c2)cc1 | inconclusive [inhibitor, single point] |
| CCN(CC)S(=O)(=O)c1ccc(OC)c(NC(=O)C(Cc2ccccc2)N2C(=O)c3ccccc3C2=O)c1 (configuration not stated) | inactive |
| NC(=O)NC(=O)C[n+]1cccc(/C=N/O)c1 | inactive |
| CCc1cc2c(=O)c(-c3cnn(-c4ccccc4)c3)c(C(F)(F)F)oc2c(CN(C)C)c1O | active: 6.57 µM |
| Cc1cc(/C=C2\SC(=S)NC2=O)c(C)n1-c1ccc(O)cc1 | active: 9.28 µM |
| COc1ccccc1N1CCN(C(=O)c2ccc(Cn3c(=O)[nH]c4ccsc4c3=O)cc2)CC1 | inconclusive [inhibitor, single point] |
| Cc1[nH]c2ccc(C(=O)OC(C)C(=O)NC3(C#N)CCCCC3)cc2c1C (configuration not stated) | inconclusive [inhibitor, single point] |
| CCCc1nn2c(=O)cc(CSCC(=O)Nc3ccccc3OC)nc2s1 | inactive |
| NC1=NC(c2ccccc2C(F)(F)F)N(c2ccc(F)c(Cl)c2)C(N)=N1 (configuration not stated) | active: 1.85 µM |
| Cc1cc(C)c2c(-n3cccc3)c(NC(=O)OCc3ccccc3)sc2n1 | inconclusive [inhibitor, partial curve, poor fit] |

| Compound | Potency |
| --- | --- |
| COc1ccc(/C=C/C(=O)N2CCC(C(N)=O)CC2)cc1S(=O)(=O)N1CCOCC1 | inactive |
| O=C(O)C1CCCCC1C(=O)NCCc1c[nH]c2ccccc12 (configuration not stated) | inactive |
| CCOCCCNC(=O)c1cc2cc3cc(OC)ccc3nc2o1 | inconclusive [inhibitor, partial curve, poor fit] |
| CCOC(=O)C/C(C)=N/NC(=O)CNc1cccc(Cl)c1C | inactive |
| CCCNC(=O)CN1C(=O)NC(CCSC)C1=O (configuration not stated) | inactive |
| O=C(Nc1ccc(N2CCN(C(=O)c3ccco3)CC2)cc1)c1ccc([N+](=O)[O-])cc1Cl | active: 11.7 µM |
| COc1ccc(OC)c(NC(=O)CSc2sc3c(O)cc(=O)[nH]c3c2C#N)c1 | inactive |
| Cc1scc(C(=O)N/N=C/c2ccco2)c1C | inactive |
| Cc1c(C(=O)N2CCc3ccccc3C2)oc2ccc(S(=O)(=O)N3CCCCCC3)cc12 | inconclusive [inhibitor, single point] |
| O=C(CCS(=O)(=O)c1cccs1)Nc1ccc(C(=O)NC2CCN(Cc3ccccc3)CC2)cc1 | inconclusive [inhibitor, single point] |
| CCN(CC)CCOC(=O)c1ccc(NC(=O)C(C)NC(=O)C23CC4CC(CC(C4)C2)C3)cc1 (configuration not stated) | inactive |
| Cc1nc(S(=O)(=O)N2CCOCC2)c(C#N)c(C)c1Cl | inconclusive [inhibitor, partial curve, poor fit] |
| CCCS(=O)c1nc(C)cc(C)c1S(C)(=O)=O (configuration not stated) | inactive |
| O=C(NC1CCCCCCC1)C1c2ccccc2C(=O)N1Cc1ccco1 (configuration not stated) | inconclusive [inhibitor, partial curve, poor fit] |
| Cc1ccc(-n2cc(C(=O)c3ccc4ccccc4c3O)cn2)cc1 | inactive |
| COc1cc(C2Nc3ccccc3C(=O)N2c2ccccc2)c(Br)cc1OCC(=O)O (configuration not stated) | inactive |
| COc1ccccc1-n1nc(C)c(-c2ccccc2)c1N | inactive |
| COc1ccc2cc(-c3ccccc3F)ncc2c1 | inactive |
| CCc1cc(=O)oc2c3c(cc(OCC(=O)NCCCn4ccnc4)c12)OC(C)(C)CC3 | inconclusive [inhibitor, partial curve, poor fit] |
| COC(=O)C1=C(c2ccc3ccccc3c2)C[C@@H]2CC[C@H]1N2C(=O)NCc1ccc(C(F)(F)F)cc1 | active: 8.28 µM |
| Cc1cc(C)cc(NC(=O)c2ccc(NC(=O)C3C4CC5OC(=O)C3C5C4)cc2)c1 (configuration not stated) | inconclusive [inhibitor, single point] |
| CCN(C(=O)COC(=O)c1cc(C)oc1C)c1c(N)n(Cc2ccccc2)c(=O)[nH]c1=O | inconclusive [inhibitor, single point] |
| Cc1ccc(Nc2nc(-c3ccc(S(=O)(=O)N4CCOCC4)cc3)cs2)cc1Cl | active: 10.4 µM |

— PubChem BioAssay AID504832 (National Center for Advancing Translational Sciences (NCATS), 2011)
